From the supplement of paper PMC11876631
Numbering of substitutions follows the chain as printed. Names may count otherwise. ± gives the standard deviation of the averaged measurements. Laboratory Escherichia coli strains with one amino-acid change in an essential protein, pooled on minimal glucose agar with carbenicillin or gentamicin at twice the control MIC (plus kanamycin and chloramphenicol for the plasmids), 48 h. Fold change of barcode share against drug-free plates; higher = less susceptible. Active = above 20 in both replicates (the paper's putatively resistant). '<' = one read or none on drug, '>' = one read or none on a drug-free plate. Shares are relative, so most strains fall below 1 when a few take over. Listed are strains with at least 15 reads on both drug-free plates, and hits; most hits rest on fewer reference reads. Replicate rank correlation about 0.5. Edits are read from barcodes.

B1: carA L7A (protein)
chain: MIKSALAVLEDGTQFHGRAIGATGSAVGEVVFNTSMTGYQEILTDPSYSRQIVTLTYPHIGNVGTNDADEESSQVHAQGLVIRDLPLIASNFRNTEDLSSYLKRHNIVAIADIDTRKLTRLLREKGAQNGCIIAGDNPDAALALEKARAFPGLNGMDLAKEVTTAEAYSWTQGSWTLTGGLPEAKKEDELPFHVVAYDFGAKRNILRMLVDRGCRLTIVPAQTSAEDVLKMNPDGIFLSNGPGDPAPCDYAITAIQKFLETDIPVFGICLGHQLLALASGAKTVKMKFGHHGGNHPVKDVEKNVVMITAQNHGFAVDEATLPANLRVTHKSLFDGTLQGIHRTDKPAFSFQGHPEASPGPHDAAPLFDHFIELIEQYRKTAK
B2: ispU V155A (protein)
chain: MMLSATQPLSEKLPAHGCRHVAIIMDGNGRWAKKQGKIRAFGHKAGAKSVRRAVSFAANNGIEALTLYAFSSENWNRPAQEVSALMELFVWALDSEVKSLHRHNVRLRIIGDTSRFNSRLQERIRKSEALTAGNTGLTLNIAANYGGRWDIVQGARQLAEKVQQGNLQPDQIDEEMLNQHVCMHELAPVDLVIRTGGEHRISNFLLWQIAYAELYFTDVLWPDFDEQDFEGALNAFANRERRFGGTEPGDETA
B3: ispU V155W (protein)
chain: B2 chain with A155W
B4: ispU V192A (protein)
chain: B2 chain with A155V, V192A
B5: ispU L206Q (protein)
chain: B2 chain with A155V, L206Q
B6: cdsA I7A (protein)
chain: MLKYRLASAFVLIPVVIAALFLLPPVGFAIVTLVVCMLAAWEWGQLSGFTTRSQRVWLAVLCGLLLALMLFLLPEYHRNIHQPLVEISLWASLGWWIVALLLVLFYPGSAAIWRNSKTLRLIFGVLTIVPFFWGMLALRAWHYDENHYSGAIWLLYVMILVWGADSGAYMFGKLFGKHKLAPKVSPGKTWQGFIGGLATAAVISWGYGMWANLDVAPVTLLICSIVAALASVLGDLTESMFKREAGIKDSGHLIPGHGGILDRIDSLTAAVPVFACLLLLVFRTL
B7: cdsA I7W (protein)
chain: B6 chain with A7W
B8: cdsA I7Q (protein)
chain: B6 chain with A7Q

Biological target: Escherichia coli (laboratory strain)
Assay: barcode share on antibiotic plates over drug-free plates; higher = less susceptible
Conditions: antibiotic: carbenicillin; 2× MIC (3.1 µg/mL)
Description: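 A pool of E. coli strains, each edited to carry one amino-acid change in an essential protein, was grown for 48 h on minimal glucose agar with or without antibiotic; strain barcodes were sequenced; mean of two replicates.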

Protein | fold change of barcode share
B1 | 3.03 ± 0.24
B2 | 0.562 ± 0.087
B3 | 0.0651 ± 0.038
B4 | 0.13 ± 0.13
B5 | 0.354 ± 0.35
B6 | 0.338 ± 0.076
B7 | 0.495 ± 0.14
B8 | 0.268 ± 0.057

Same assay, conditions: antibiotic: gentamicin; 2× MIC (MIC 0.45 µg/mL)

Protein | fold change of barcode share
B2 | 0.264 ± 0.31
B3 | 0.0124 ± 0.0014
B4 | < 0.0132
B5 | < 0.0168
B6 | < 0.00573
B7 | 0.00616 ± 0.0028
B8 | 0.00765 ± 0.0039
